Measured values taken from the supplement of paper PMC10441789.
The list shows a part of the results. Antibody binding of pooled human sera (four to six donors per pool; dilution not stated) to peptides of the Trypanosoma cruzi antigen TSSA on microarrays. Quantile-normalised fluorescence in arbitrary units, mean of duplicate arrays; higher = more binding. No active / inactive call. The uninfected pools are read here as the healthy donors of the same country. The strongest signals lie near the top of the scale (about 60,000).

Tests used:
Test in all cases: antibody binding signal (normalised fluorescence) (arbitrary fluorescence units); higher = stronger serum antibody binding to peptide
[1] = system: pooled sera of chronic Chagas disease patients, Argentina
Experimental: (§1)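 Microarray of 15-residue peptides over residues 30-55 of Trypanosoma cruzi TSSAII, each with 1 to 10 substitutions at naturally variable positions, probed with one serum pool per country.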

[2] = system: pooled sera of chronic Chagas disease patients, Bolivia
Experimental: as §1

[3] = system: pooled sera of chronic Chagas disease patients, Brazil
Experimental: as §1

[4] = system: pooled sera of chronic Chagas disease patients, Colombia
Experimental: as §1

[5] = system: pooled sera of chronic Chagas disease patients, Mexico
Experimental: as §1

[6] = system: pooled sera of chronic Chagas disease patients, USA
Experimental: as §1

[7] = system: pooled sera of uninfected people, Argentina
Experimental: as §1

[8] = system: pooled sera of uninfected people, Bolivia
Experimental: as §1

[9] = system: pooled sera of uninfected people, Brazil
Experimental: as §1

[10] = system: pooled sera of uninfected people, Colombia
Experimental: as §1

[11] = system: pooled sera of uninfected people, Mexico
Experimental: as §1

[12] = system: pooled sera of uninfected people, USA
Experimental: as §1

Row | Sequence | antibody binding signal [1] | antibody binding signal [2] | antibody binding signal [3] | antibody binding signal [4] | antibody binding signal [5] | antibody binding signal [6] | antibody binding signal [7] | antibody binding signal [8] | antibody binding signal [9] | antibody binding signal [10] | antibody binding signal [11] | antibody binding signal [12]
1 | GTENKPAAGGAPSQS | 46000 | 1570 | 6480 | 1220 | 1570 | 1010 | 621 | 1420 | 425 | 190 | 328 | 210
2 | PSGKDNKAAAGGTPS | 1740 | 416 | 2390 | 5100 | 4320 | 3240 | 219 | 230 | 245 | 126 | 81.6 | 84.3
3 | ISTPPSGKEKKAATG | 11800 | 164 | 238 | 348 | 16700 | 663 | 320 | 420 | 98.7 | 280 | 91 | 117
4 | SGKEKKTATGGAPSQ | 3560 | 253 | 3340 | 2450 | 3570 | 4680 | 248 | 153 | 89.9 | 107 | 148 | 108
5 | GKDNKTAAGEAPSQS | 3380 | 5000 | 5410 | 6350 | 4820 | 7070 | 271 | 248 | 150 | 262 | 115 | 131
6 | ENKPAAGGAPSPSGA | 936 | 3060 | 4260 | 2090 | 460 | 1050 | 344 | 376 | 305 | 230 | 156 | 284
7 | TPPSGKDKKPAAGGA | 11900 | 597 | 2760 | 909 | 46100 | 1010 | 454 | 269 | 241 | 203 | 91.2 | 162
8 | SGKEKKAAAGEAPSP | 3120 | 472 | 4710 | 2550 | 6040 | 10500 | 247 | 93 | 95.8 | 104 | 88.3 | 85.5
9 | PPSGTEKKPAAGEAP | 35500 | 22000 | 36200 | 785 | 5020 | 13300 | 1120 | 633 | 687 | 345 | 331 | 462
10 | DKKAAAGGAPSPPGA | 367 | 250 | 283 | 5200 | 617 | 908 | 225 | 136 | 173 | 131 | 121 | 160
11 | TDKKPAAGETPSPPG | 347 | 189 | 9730 | 235 | 200 | 2840 | 91.1 | 348 | 285 | 166 | 142 | 819
12 | KEKKAATGEAPSPSG | 12000 | 6750 | 15100 | 138 | 178 | 16300 | 353 | 75 | 110 | 174 | 85.2 | 103
13 | KEKKTAAGEAPSPSG | 156 | 228 | 176 | 310 | 197 | 4190 | 177 | 90.1 | 86.7 | 895 | 83.9 | 104
14 | DKKAAAGETPSPSGA | 1510 | 252 | 811 | 295 | 279 | 3240 | 193 | 211 | 200 | 180 | 153 | 576
15 | SGKDKKAAAGGTPSQ | 605 | 225 | 310 | 3350 | 1580 | 2290 | 130 | 123 | 488 | 162 | 87.1 | 97.5
16 | PSGTDNKAATGEAPS | 26800 | 35600 | 44500 | 323 | 408 | 27000 | 170 | 577 | 1220 | 224 | 154 | 146
17 | TDNKAAAGETPSQSG | 154 | 415 | 13300 | 135 | 149 | 206 | 72.3 | 369 | 149 | 148 | 162 | 84.7
18 | DKKPAAGETPSPPGA | 415 | 223 | 8660 | 136 | 264 | 2200 | 124 | 254 | 215 | 165 | 115 | 292
19 | EKKTATGETPSQSGA | 1020 | 799 | 4600 | 381 | 463 | 6670 | 304 | 744 | 272 | 115 | 234 | 746

Row | Sequence | antibody binding signal [1] | antibody binding signal [2] | antibody binding signal [3] | antibody binding signal [4] | antibody binding signal [5] | antibody binding signal [6] | antibody binding signal [7] | antibody binding signal [8] | antibody binding signal [9] | antibody binding signal [10] | antibody binding signal [11] | antibody binding signal [12]
20 | SGKEKKPAAGGTPSP | 8400 | 927 | 4310 | 6090 | 7640 | 5670 | 173 | 144 | 845 | 124 | 91.8 | 235
21 | TEKKPAAGEAPSQSG | 1410 | 12200 | 16600 | 381 | 435 | 16100 | 92.6 | 164 | 297 | 94.6 | 242 | 679
22 | PSGTDNKPAAGGTPS | 30500 | 11000 | 45900 | 5290 | 1170 | 7560 | 273 | 841 | 1840 | 753 | 684 | 240
23 | GKDKKAAAGETPSPS | 599 | 287 | 201 | 1160 | 805 | 1270 | 158 | 141 | 96.2 | 102 | 132 | 581
24 | SGTENKPAAGGTPSP | 45400 | 19700 | 35200 | 1410 | 1320 | 8290 | 619 | 2150 | 857 | 642 | 384 | 163
25 | PPSGKENKPAAGGTP | 13000 | 3180 | 3310 | 2310 | 4910 | 11400 | 4800 | 2130 | 439 | 556 | 227 | 525
26 | EKKTATGETPSPSGA | 817 | 406 | 688 | 377 | 466 | 7010 | 458 | 517 | 157 | 126 | 229 | 1090
27 | TSSTPPSGTEKKPAA | 46200 | 6280 | 44400 | 850 | 39400 | 11700 | 2120 | 902 | 289 | 165 | 227 | 885
28 | SGTENKAAAGGTPSP | 41600 | 9000 | 13100 | 3430 | 838 | 3960 | 395 | 487 | 1040 | 538 | 181 | 131
29 | NKPATGETPSPPGAS | 16000 | 27700 | 34100 | 252 | 226 | 22400 | 525 | 1230 | 457 | 554 | 1470 | 1810
30 | TDNKPATGEAPSQSG | 47500 | 52700 | 52100 | 378 | 233 | 40200 | 873 | 647 | 309 | 166 | 524 | 150
31 | DNKPATGETPSQSGA | 38900 | 33400 | 37800 | 222 | 188 | 27500 | 258 | 380 | 389 | 173 | 1780 | 159
32 | KEKKPAAGGTPSPPG | 156 | 190 | 135 | 1550 | 142 | 505 | 89.8 | 98.2 | 561 | 89.7 | 72.2 | 341
33 | GTEKKPATGETPSQP | 33400 | 18900 | 41500 | 1120 | 1640 | 23000 | 261 | 1140 | 1740 | 196 | 1840 | 697
34 | PPSGTEKKAATGETP | 26400 | 9240 | 13100 | 557 | 1100 | 10200 | 1130 | 355 | 515 | 661 | 166 | 239
35 | GKEKKAAAGEAPSPP | 4340 | 377 | 1570 | 5120 | 5630 | 9740 | 141 | 85.7 | 81.9 | 88.1 | 78.5 | 104
36 | KPAAGETPSPSGASS | 306 | 236 | 3900 | 241 | 2900 | 1010 | 199 | 264 | 192 | 145 | 140 | 633
37 | PSGKDNKTAAGGAPS | 2120 | 460 | 3300 | 8170 | 4970 | 4250 | 353 | 206 | 142 | 164 | 97.2 | 130
